Measured values taken from PMC9911399, “Two distinct binding modes provide the RNA-binding protein RbFox with extraordinary sequence specificity”.
Changes are numbered by the printed parent chain; changes in the protein carry UniProt numbers. Some of the results follow.

T1: RBFOX1 RRM RbFoxmut (Fox-RRM*) (Homo sapiens, UniProt Q9NWB1 109-208, R118D;E147R;N151S;E152T)
T1 sequence: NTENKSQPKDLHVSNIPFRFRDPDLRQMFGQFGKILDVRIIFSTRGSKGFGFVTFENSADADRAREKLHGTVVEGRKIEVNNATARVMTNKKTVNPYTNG

B1: CCCCAGG (DNA:RNA)
RNA: GGGAGACCGGAAUUCAGAUUGUCCCCCCAGGUUAAAUCCCGUCGUAGCCACCA
DNA 1: CAATCTGAATTCCGGTCTCCC
DNA 2: TGGTGGCTACGACGGGATT
B2: UUAUCCA (DNA:RNA)
RNA: GGGAGACCGGAAUUCAGAUUGUCCUUAUCCAUUAAAUCCCGUCGUAGCCACCA
DNA 1: CAATCTGAATTCCGGTCTCCC
DNA 2: TGGTGGCTACGACGGGATT
B3: GCAAGUU (DNA:RNA)
RNA: B1 RNA with C25G, C27A, C28A, A29G, G30U, G31U
DNA 1: CAATCTGAATTCCGGTCTCCC
DNA 2: TGGTGGCTACGACGGGATT
B4: CCAAUAU (DNA:RNA)
RNA: B1 RNA with C27A, C28A, A29U, G30A, G31U
DNA 1: CAATCTGAATTCCGGTCTCCC
DNA 2: TGGTGGCTACGACGGGATT
B5: UUGAGUC (DNA:RNA)
RNA: B2 RNA with A27G, U28A, C29G, C30U, A31C
DNA 1: CAATCTGAATTCCGGTCTCCC
DNA 2: TGGTGGCTACGACGGGATT
B6: GGCUGCU (DNA:RNA)
RNA: B2 RNA with U25G, U26G, A27C, C29G, A31U
DNA 1: CAATCTGAATTCCGGTCTCCC
DNA 2: TGGTGGCTACGACGGGATT
B7: GGACCGG (DNA:RNA)
RNA: B1 RNA with C25G, C26G, C27A, A29C
DNA 1: CAATCTGAATTCCGGTCTCCC
DNA 2: TGGTGGCTACGACGGGATT
B8: UCUACGG (DNA:RNA)
RNA: B1 RNA with C25U, C27U, C28A, A29C
DNA 1: CAATCTGAATTCCGGTCTCCC
DNA 2: TGGTGGCTACGACGGGATT
B9: GUAGGCU (DNA:RNA)
RNA: B2 RNA with U25G, U28G, C29G, A31U
DNA 1: CAATCTGAATTCCGGTCTCCC
DNA 2: TGGTGGCTACGACGGGATT
B10: UAUGCCG (DNA:RNA)
RNA: B2 RNA with U26A, A27U, U28G, A31G
DNA 1: CAATCTGAATTCCGGTCTCCC
DNA 2: TGGTGGCTACGACGGGATT
B11: GGGGUAC (DNA:RNA)
RNA: GGGAGACCGGAAUUCAGAUUGUCCGGGGUACUUAAAUCCCGUCGUAGCCACCA
DNA 1: CAATCTGAATTCCGGTCTCCC
DNA 2: TGGTGGCTACGACGGGATT
B12: CAGGCGU (DNA:RNA)
RNA: B1 RNA with C26A, C27G, C28G, A29C, G31U
DNA 1: CAATCTGAATTCCGGTCTCCC
DNA 2: TGGTGGCTACGACGGGATT
B13: AGACCUG (DNA:RNA)
RNA: B1 RNA with C25A, C26G, C27A, A29C, G30U
DNA 1: CAATCTGAATTCCGGTCTCCC
DNA 2: TGGTGGCTACGACGGGATT
B14: CGCCCAU (DNA:RNA)
RNA: B1 RNA with C26G, A29C, G30A, G31U
DNA 1: CAATCTGAATTCCGGTCTCCC
DNA 2: TGGTGGCTACGACGGGATT
B15: UGACGGU (DNA:RNA)
RNA: B1 RNA with C25U, C26G, C27A, A29G, G31U
DNA 1: CAATCTGAATTCCGGTCTCCC
DNA 2: TGGTGGCTACGACGGGATT
B16: AUGCGCU (DNA:RNA)
RNA: B2 RNA with U25A, A27G, U28C, C29G, A31U
DNA 1: CAATCTGAATTCCGGTCTCCC
DNA 2: TGGTGGCTACGACGGGATT
B17: AACGACG (DNA:RNA)
RNA: B1 RNA with C25A, C26A, C28G, G30C
DNA 1: CAATCTGAATTCCGGTCTCCC
DNA 2: TGGTGGCTACGACGGGATT
B18: AUAAAAG (DNA:RNA)
RNA: B1 RNA with C25A, C26U, C27A, C28A, G30A
DNA 1: CAATCTGAATTCCGGTCTCCC
DNA 2: TGGTGGCTACGACGGGATT
B19: GGACGUA (DNA:RNA)
RNA: B11 RNA with G27A, G28C, U29G, A30U, C31A
DNA 1: CAATCTGAATTCCGGTCTCCC
DNA 2: TGGTGGCTACGACGGGATT
B20: UCGCGCC (DNA:RNA)
RNA: B1 RNA with C25U, C27G, A29G, G30C, G31C
DNA 1: CAATCTGAATTCCGGTCTCCC
DNA 2: TGGTGGCTACGACGGGATT
B21: CUGUUCU (DNA:RNA)
RNA: B2 RNA with U25C, A27G, C29U, A31U
DNA 1: CAATCTGAATTCCGGTCTCCC
DNA 2: TGGTGGCTACGACGGGATT
B22: UAUGUUA (DNA:RNA)
RNA: B11 RNA with G25U, G26A, G27U, A30U, C31A
DNA 1: CAATCTGAATTCCGGTCTCCC
DNA 2: TGGTGGCTACGACGGGATT
B23: GGAGAAA (DNA:RNA)
RNA: B11 RNA with G27A, U29A, C31A
DNA 1: CAATCTGAATTCCGGTCTCCC
DNA 2: TGGTGGCTACGACGGGATT
B24: CCGCCGA (DNA:RNA)
RNA: B1 RNA with C27G, A29C, G31A
DNA 1: CAATCTGAATTCCGGTCTCCC
DNA 2: TGGTGGCTACGACGGGATT
B25: UAAGAAA (DNA:RNA)
RNA: B2 RNA with U26A, U28G, C29A, C30A
DNA 1: CAATCTGAATTCCGGTCTCCC
DNA 2: TGGTGGCTACGACGGGATT
B26: AAACUUA (DNA:RNA)
RNA: B2 RNA with U25A, U26A, U28C, C29U, C30U
DNA 1: CAATCTGAATTCCGGTCTCCC
DNA 2: TGGTGGCTACGACGGGATT
B27: UCGGCGC (DNA:RNA)
RNA: B11 RNA with G25U, G26C, U29C, A30G
DNA 1: CAATCTGAATTCCGGTCTCCC
DNA 2: TGGTGGCTACGACGGGATT
B28: CACUCCC (DNA:RNA)
RNA: B2 RNA with U25C, U26A, A27C, A31C
DNA 1: CAATCTGAATTCCGGTCTCCC
DNA 2: TGGTGGCTACGACGGGATT
B29: UUUUUAU (DNA:RNA)
RNA: B2 RNA with A27U, C29U, C30A, A31U
DNA 1: CAATCTGAATTCCGGTCTCCC
DNA 2: TGGTGGCTACGACGGGATT
B30: GACGGGG (DNA:RNA)
RNA: B1 RNA with C25G, C26A, C28G, A29G
DNA 1: CAATCTGAATTCCGGTCTCCC
DNA 2: TGGTGGCTACGACGGGATT
B31: CCGUGUG (DNA:RNA)
RNA: B1 RNA with C27G, C28U, A29G, G30U
DNA 1: CAATCTGAATTCCGGTCTCCC
DNA 2: TGGTGGCTACGACGGGATT

These binders were tested against T1, RBFOX1 RRM RbFoxmut (Fox-RRM*) (assay: EMSA; HiTS-Eq, 1 nM pool, 10 min; buffer printed only for the single-RNA assays: 10 mM Tris pH 7.5, 150 mM NaCl, 3.4 mM EDTA, 0.001% NP-40, 30 C). Conditions: tags: His6 N-terminal (pET28a); label: 5' 32P.
In short: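 Purified RbFox RRM, wild type or mutant, was incubated for 10 min in 50 µL with 1 nM of a 5′-radiolabelled RNA pool carrying 7 randomized nucleotides, whose flanks were annealed to DNA oligonucleotides, over a series of increasing protein concentrations. Unbound RNA was resolved on 8% native PAGE, cut out, reverse-transcribed, barcoded by PCR and sequenced on an Illumina HiSeq 2500. Relative association constants were derived from changes in read counts for each RNA species versus the control reaction and normalised to the cognate motif.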
In the case of B1, the binding signal is reported as 0.0949 KA relative to UGCAUGU. B2 was tested, and the binding signal was 0.0965 KA relative to UGCAUGU. For B3, the binding signal was 0.0874 KA relative to UGCAUGU. In the case of B4, the binding signal is reported as 0.112 KA relative to UGCAUGU. B5 was tested, and the binding signal was 0.151 KA relative to UGCAUGU. B6 was tested, and the binding signal was 0.095 KA relative to UGCAUGU. For B7, the binding signal was 0.108 KA relative to UGCAUGU. For B8, the binding signal was 0.0815 KA relative to UGCAUGU. In the case of B9, the binding signal is reported as 0.103 KA relative to UGCAUGU. With B10 the binding signal was 0.131 KA relative to UGCAUGU. With B11 the binding signal was 0.103 KA relative to UGCAUGU. In the case of B12, the binding signal is reported as 0.086 KA relative to UGCAUGU. With B13 the binding signal was 0.0751 KA relative to UGCAUGU. In the case of B14, the binding signal is reported as 0.0643 KA relative to UGCAUGU. B15 was tested, and the binding signal was 0.0771 KA relative to UGCAUGU. For B16, the binding signal was 0.112 KA relative to UGCAUGU. For B17, the binding signal was 0.108 KA relative to UGCAUGU. In the case of B18, the binding signal is reported as 0.101 KA relative to UGCAUGU. For B19, the binding signal was 0.137 KA relative to UGCAUGU. In the case of B20, the binding signal is reported as 0.153 KA relative to UGCAUGU. For B21, the binding signal was 0.0887 KA relative to UGCAUGU. In the case of B22, the binding signal is reported as 0.137 KA relative to UGCAUGU. B23 was tested, and the binding signal was 0.0602 KA relative to UGCAUGU. B24 was tested, and the binding signal was 0.128 KA relative to UGCAUGU. With B25 the binding signal was 0.0643 KA relative to UGCAUGU. B26 was tested, and the binding signal was 0.0884 KA relative to UGCAUGU. B27 was tested, and the binding signal was 0.0891 KA relative to UGCAUGU. In the case of B28, the binding signal is reported as 0.0683 KA relative to UGCAUGU. With B29 the binding signal was 0.111 KA relative to UGCAUGU. B30 was tested, and the binding signal was 0.0441 KA relative to UGCAUGU. In the case of B31, the binding signal is reported as 0.167 KA relative to UGCAUGU.
